This is one part of the list. The full chains were built here from the parent and the listed change. Inactive controls read about 0.05.
B1: TEV protease; numbered along this chain (parent)
chain: MGESLFKGPRDYNPISSSICHLTNESDGHTTSLYGIGFGPFIITNKHLFRRNNGTLVVQSLHGVFKVKDTTTLQQHLVDGRDMIIIRMPKDFPPFPQKLKFREPQREERICLVTTNFQTKSMSSMVSDTSCTFPSGDGIFWKHWIQTKDGQCGSPLVSTRDGFIVGIHSASNFTNTNNYFTSVPKNFMELLTNQEAQQWVSGWRLNADSVLWGGHKVFMVKPEEPFQPVKEATQL

Variants of: B1
Experiment: raw area under fraction-flipped curve 0-4 h after induction (AUC4h, not background-subtracted), DNA-recorder readout of cleavage of the substrate (dimensionless); higher = more cleavage of the substrate by the protease variant
Conditions: temperature: 34 °C; time window: 0-4 h after rhamnose induction
Description: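 In vivo DNA recorder in E. coli TOP10(DE3) ΔrhaA at 34 °C. Each TEVp single-site mutant (parent TEVp 0) is paired with a single-site variant of the 7-mer TEVs (canonical ENLYFQ|S). The substrate sits between flexible linkers in a Bxb1-sfGFP-TEVs-SsrA fusion, so cleavage stabilises Bxb1 and speeds flipping of a recombination array, read by NGS. The value is the raw area under the fraction-flipped curve over 0-4 h after rhamnose induction (AUC4h), with ≥20 reads per time point. It is not background-subtracted; inactive controls average about 0.047.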
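Further: Bxb1 expression induced with 0.2% (w/v) L-rhamnose at OD600 near 0.5, cultures sampled hourly, flipped fraction per protease–substrate barcode pair counted by paired-end Illumina sequencing.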

Variant	area with substrate EALYFQS	area with substrate ECLYFQS	area with substrate EDLYFQS	area with substrate EELYFQS	area with substrate EFLYFQS	area with substrate EHLYFQS	area with substrate EILYFQS	area with substrate EKLYFQS	area with substrate ELLYFQS	area with substrate EMLYFQS	area with substrate EPLYFQS	area with substrate EQLYFQS	area with substrate ERLYFQS	area with substrate ESLYFQS	area with substrate EVLYFQS	area with substrate EWLYFQS	area with substrate EGLYFQS	area with substrate ETLYFQS	area with substrate EYLYFQS
MGESLFKGPRDYNPISSSICHLTNESDGHTTSLYGIGFGMFIITNKHLFRRNNGTLVVQSLHGVFKVKDTTTLQQHLVDGRDMIIIRMPKDFPPFPQKLKFREPQREERICLVTTNFQTKSMSSMVSDTSCTFPSGDGIFWKHWIQTKDGQCGSPLVSTRDGFIVGIHSASNFTNTNNYFTSVPKNFMELLTNQEAQQWVSGWRLNADSVLWGGHKVFMVKPEEPFQPVKEATQL [P40M]	0.0978	0.0965	0.138	0.102	0.0843	0.087	0.0905	0.0895	0.0939	0.102	0.105	0.133	0.105	0.11	0.0957	0.106	–	–	–
MGESLFKGPRDYNPISSSICHLTNESDGHTTSLYGIGFGWFIITNKHLFRRNNGTLVVQSLHGVFKVKDTTTLQQHLVDGRDMIIIRMPKDFPPFPQKLKFREPQREERICLVTTNFQTKSMSSMVSDTSCTFPSGDGIFWKHWIQTKDGQCGSPLVSTRDGFIVGIHSASNFTNTNNYFTSVPKNFMELLTNQEAQQWVSGWRLNADSVLWGGHKVFMVKPEEPFQPVKEATQL [P40W]	0.124	0.0505	0.142	–	–	–	0.0997	0.0918	0.0893	0.0753	0.152	0.119	0.0931	0.104	0.096	0.105	0.0849	0.114	0.102
MGESLFKGPRDYNPISSSICHLTNESDGHTTSKYGIGFGPFIITNKHLFRRNNGTLVVQSLHGVFKVKDTTTLQQHLVDGRDMIIIRMPKDFPPFPQKLKFREPQREERICLVTTNFQTKSMSSMVSDTSCTFPSGDGIFWKHWIQTKDGQCGSPLVSTRDGFIVGIHSASNFTNTNNYFTSVPKNFMELLTNQEAQQWVSGWRLNADSVLWGGHKVFMVKPEEPFQPVKEATQL [L33K]	0.057	–	0.0584	0.0735	0.0559	0.0509	0.0614	0.0655	–	0.0469	–	0.0666	–	0.0602	0.0572	–	–	0.0888	0.0767
MGESLFKGPRDYNPISSSICHLTNESDGHTTSSYGIGFGPFIITNKHLFRRNNGTLVVQSLHGVFKVKDTTTLQQHLVDGRDMIIIRMPKDFPPFPQKLKFREPQREERICLVTTNFQTKSMSSMVSDTSCTFPSGDGIFWKHWIQTKDGQCGSPLVSTRDGFIVGIHSASNFTNTNNYFTSVPKNFMELLTNQEAQQWVSGWRLNADSVLWGGHKVFMVKPEEPFQPVKEATQL [L33S]	0.108	0.08	0.111	0.0972	0.0922	0.0977	0.0871	0.12	0.079	–	0.088	0.101	0.0948	0.101	0.0735	0.0775	0.0741	0.137	0.12
MGESLFKGPRDYNPISSSICHLTNESDGHTTSLYGIGFGPFSITNKHLFRRNNGTLVVQSLHGVFKVKDTTTLQQHLVDGRDMIIIRMPKDFPPFPQKLKFREPQREERICLVTTNFQTKSMSSMVSDTSCTFPSGDGIFWKHWIQTKDGQCGSPLVSTRDGFIVGIHSASNFTNTNNYFTSVPKNFMELLTNQEAQQWVSGWRLNADSVLWGGHKVFMVKPEEPFQPVKEATQL [I42S]	0.0537	0.0469	0.0414	0.0399	0.049	0.0598	0.0531	0.0427	0.0487	–	0.0563	0.041	0.0469	0.0491	0.0442	0.0449	0.0364	0.0515	–
MGESLFKGPRDYNPISSSICHLTNESDGHTTSLYGIQFGPFIITNKHLFRRNNGTLVVQSLHGVFKVKDTTTLQQHLVDGRDMIIIRMPKDFPPFPQKLKFREPQREERICLVTTNFQTKSMSSMVSDTSCTFPSGDGIFWKHWIQTKDGQCGSPLVSTRDGFIVGIHSASNFTNTNNYFTSVPKNFMELLTNQEAQQWVSGWRLNADSVLWGGHKVFMVKPEEPFQPVKEATQL [G37Q]	0.0804	0.0875	0.0711	0.115	0.0773	0.0465	0.0631	0.0732	0.0739	0.0719	0.0927	–	0.0724	0.0672	–	0.0688	0.0699	–	–
MGESLFKGPRDYNPISSSICHLTNESDGHTTSLYGIGFGPDIITNKHLFRRNNGTLVVQSLHGVFKVKDTTTLQQHLVDGRDMIIIRMPKDFPPFPQKLKFREPQREERICLVTTNFQTKSMSSMVSDTSCTFPSGDGIFWKHWIQTKDGQCGSPLVSTRDGFIVGIHSASNFTNTNNYFTSVPKNFMELLTNQEAQQWVSGWRLNADSVLWGGHKVFMVKPEEPFQPVKEATQL [F41D]	0.094	0.0829	0.103	0.119	0.0625	0.0982	0.0729	0.0612	0.074	0.0916	–	0.111	0.111	0.0848	0.0761	–	0.0719	0.0561	0.0644
MGESLFKGPRDYNPISSSICHLTNESDGHTTSLYGPGFGPFIITNKHLFRRNNGTLVVQSLHGVFKVKDTTTLQQHLVDGRDMIIIRMPKDFPPFPQKLKFREPQREERICLVTTNFQTKSMSSMVSDTSCTFPSGDGIFWKHWIQTKDGQCGSPLVSTRDGFIVGIHSASNFTNTNNYFTSVPKNFMELLTNQEAQQWVSGWRLNADSVLWGGHKVFMVKPEEPFQPVKEATQL [I36P]	0.0438	0.0352	–	0.0401	–	–	0.032	–	0.0463	0.0397	–	0.0403	–	0.048	0.0487	0.0303	0.0352	0.0521	–
MGESLFKGPRDYNPISSSICHLTNESDGHTTSLYGIGRGPFIITNKHLFRRNNGTLVVQSLHGVFKVKDTTTLQQHLVDGRDMIIIRMPKDFPPFPQKLKFREPQREERICLVTTNFQTKSMSSMVSDTSCTFPSGDGIFWKHWIQTKDGQCGSPLVSTRDGFIVGIHSASNFTNTNNYFTSVPKNFMELLTNQEAQQWVSGWRLNADSVLWGGHKVFMVKPEEPFQPVKEATQL [F38R]	0.0867	0.0729	–	0.0646	–	0.0681	0.0652	0.0798	–	–	0.0713	0.0782	0.0693	–	0.065	0.0614	0.0554	0.0899	0.0266
